Experimental data from the antibiotic and cytotoxicity screens of Wong et al. (2023).
This is one part of the list.

The compounds below were run on HSkMC (human skeletal muscle cells) (assay: cytotoxicity call (relative viability < 0.9)). Settings: 10 µM.
In the case of `CN(CC[C@@H](N)CC(=O)N[C@H]1C=C[C@H](n2ccc(N)nc2=O)O[C@@H]1C(=O)O)C(=N)N`, the cytotoxicity call is reported as “inactive”.
In the case of `Cn1cc(N2C[C@@H]3CNC[C@@H]3C2=O)cn1`, the cytotoxicity call is reported as “inactive”.
`CC(O)(CS(=O)(=O)c1ccc(F)cc1)C(=O)Nc1ccc(C#N)c(C(F)(F)F)c1` (centres undefined) was tested, and the cytotoxicity call was “inactive”.
In the case of `COC(=O)C1=CCCN(C)C1`, the cytotoxicity call is reported as “inactive”.
`NC1Cc2ccccc2C1` was tested, and the cytotoxicity call was “inactive”.
With `C[C@]12CC[C@](C)(O1)[C@H](C(=O)O)[C@@H]2C(=O)O` the cytotoxicity call was “inactive”.
For `C1CC2(CCN1)OCCO2`, the cytotoxicity call was “inactive”.
`CN1CCC2(C)c3cc(O)ccc3N(C)C12.O=C(O)C=CC(=O)O` (centres undefined) was tested, and the cytotoxicity call was “inactive”.
With `[N-]=[N+]=NCC(=O)Nc1ccon1` the cytotoxicity call was “inactive”.
In the case of `C[C@@H]1CN([C@H](C)CO)C(=O)c2c(c3ccccc3n2C)-c2ccccc2CO[C@H]1CN(C)C(=O)Oc1ccccc1`, the cytotoxicity call is reported as “inactive”.
With `CCCCCCCCCc1ccc(O)cc1` the cytotoxicity call was “active”.
`N=C(N)NOCCC(N)C(=O)O` (centres undefined) was tested, and the cytotoxicity call was “inactive”.
`OCC1CCCN2CCCCC12` (centres undefined) was tested, and the cytotoxicity call was “inactive”.
With `COC(=O)[C@@]1(Cc2ccccc2CN=[N+]=[N-])N=C(c2ccc(OCCCO)cc2)O[C@H]1c1ccccc1N=[N+]=[N-]` the cytotoxicity call was “inactive”.
`Cl.NCCc1c[nH]c2ccc(O)cc12` was tested, and the cytotoxicity call was “inactive”.
In the case of `C=CCOC(Cn1ccnc1)c1ccc(Cl)cc1Cl.O=S(=O)(O)O` (centres undefined), the cytotoxicity call is reported as “inactive”.
In the case of `C[C@@H]1CN([C@H](C)CO)C(=O)CCCn2cc(nn2)CO[C@@H]1CN(C)C(=O)Oc1cccc2ccccc12`, the cytotoxicity call is reported as “inactive”.
For `O=c1cccc2n1CC1CNCC2C1` (centres undefined), the cytotoxicity call was “inactive”.
For `CN(C)C(=O)CCC(=O)N1C[C@H]2C[C@@H]1CN2`, the cytotoxicity call was “inactive”.
`C1C[C@@H]2C[C@@H]2N1` was tested, and the cytotoxicity call was “inactive”.
For `O=C(O)CC[C@@H](CP(=O)(O)O)C(=O)O`, the cytotoxicity call was “inactive”.
For `CS(=N)(=O)CC[C@H](N)C(=O)O` (some centres undefined), the cytotoxicity call was “inactive”.
For `C[C@@H]1O[C@@H](OC(=O)Cc2ccccc2)[C@H](O)[C@H](O)[C@H]1O`, the cytotoxicity call was “inactive”.
For `O=C1C2CCN(CC2)C1(CO)CO`, the cytotoxicity call was “inactive”.
With `O=C(O)Cc1cccnc1C(=O)O` the cytotoxicity call was “inactive”.
In the case of `COc1ccc(N=[N+]=[N-])cc1`, the cytotoxicity call is reported as “inactive”.
In the case of `COP(=S)(OC)Oc1cc(Cl)c(Cl)cc1Cl`, the cytotoxicity call is reported as “inactive”.
In the case of `O=C1O[C@H]2CN[C@@H]1C2`, the cytotoxicity call is reported as “inactive”.
With `CC12CCC3C(CC=C4CC(O)CCC43C)C1CCC2=O` (centres undefined) the cytotoxicity call was “inactive”.
For `N#[N+]CC(=O)CC[C@H](N)C(=O)O`, the cytotoxicity call was “inactive”.
For `COc1ccc2c3c([nH]c2c1)C(C)=NCC3`, the cytotoxicity call was “inactive”.
`C1COC2(CCOCC2)CN1` was tested, and the cytotoxicity call was “inactive”.
With `N#CN1CCCC1` the cytotoxicity call was “inactive”.
For `c1ccc(N2CCNCC2)nc1`, the cytotoxicity call was “inactive”.
For `CC1CCC2C(C)C(=O)OC3OC4(C)CCC1C32OO4` (centres undefined), the cytotoxicity call was “inactive”.
For `Cc1ccc(OC(=O)N(C)C[C@H]2OCc3ccccc3-c3c(n(C)c4ccccc34)C(=O)N([C@@H](C)CO)C[C@H]2C)cc1`, the cytotoxicity call was “inactive”.
For `O=[N+]([O-])c1cc([As](=O)(O)O)ccc1O`, the cytotoxicity call was “inactive”.
For `CNCC(O)c1ccc(O)cc1.CNCC(O)c1ccc(O)cc1.O=C(O)C(O)C(O)C(=O)O` (centres undefined), the cytotoxicity call was “inactive”.
In the case of `C[C@H]1CN([C@@H](C)CO)C(=O)c2c(c3ccccc3n2C)-c2ccccc2CO[C@H]1CN(C)C(=O)Oc1ccccc1`, the cytotoxicity call is reported as “inactive”.
